Source: PubChem BioAssay AID2202238 (Ras Initiative Chemistry Research Team, Frederick National …, 2025)
Screen size: about 2,200 compounds; fewer than 10 were called active. Some of the results follow. Where no call is shown, the source marks the result inconclusive.

The molecules below were run against GTPase KRas (Homo sapiens) (UniProt P01116) (assay: Fragment capture on engineered cysteines, share of protein labelled (AID 2202238)). Details: KRAS G12D cysteine mutants, disulfide tethering, MALDI-TOF labeling; stronger effect = higher value; H27C mutant labeling; fragment at 500 µM.
UniProt P01116, sequence (P01116 whole entry, looked up, the tested form may be a part): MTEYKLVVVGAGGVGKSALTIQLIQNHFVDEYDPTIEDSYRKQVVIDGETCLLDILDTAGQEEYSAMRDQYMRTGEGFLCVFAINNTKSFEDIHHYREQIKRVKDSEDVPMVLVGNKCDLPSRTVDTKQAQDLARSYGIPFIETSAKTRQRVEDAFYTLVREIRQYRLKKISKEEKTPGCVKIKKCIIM
Set-up: protein at 5 µM with 500 µM competing thiol for 1.5 h
In the case of O=C(CCS)N1CCN(c2ncnc3c2oc2ccccc23)CC1, the percent labeling is reported as 39.7%.
O=C(CCS)NCC1(c2cccc(Cl)c2)CC1 gave a percent labeling of 22.4%.
Molecule O=C(CCS)NCc1cc(OC2CCC2)ccn1 has a percent labeling of 33.1%.
Work on O=C(CCS)NCc1cccc(OC(F)F)c1 yielded a percent labeling of 37.3%.
O=C(CCS)N1CCC(Oc2ccc3nccn3c2)CC1 showed a percent labeling of 57.4%.
For Cc1ccc(C2CCC(NC(=O)CCS)CC2)cc1 (centres undefined), the percent labeling was 20.6%.
Molecule O=C(CCS)NC1(Cc2ccccc2F)CCCCC1 has a percent labeling of 24.3%.
Molecule Cc1c(NC(=O)CCS)cnn1CC(F)F has a percent labeling of 36.8%.
Molecule O=C(NCCS)c1ccc(-n2cccn2)c(F)c1 has a percent labeling of 28.3%.
O=C(Cn1c2ccccc2c(=O)c2ccccc21)NCCS gave a percent labeling of 27.3%.
For CCOC(=O)C12CC(C)(C1)OC21CCN(C(=O)CCS)CC1, the percent labeling was 39%.
In the case of CC1(C)CN(C(=O)CCS)c2cc(F)ccc21, the percent labeling is reported as 27%.
Cn1nc(C(F)(F)F)cc1-c1ccc(NC(=O)CCS)cc1 showed a percent labeling of 23%.
CN1CCN(C(=O)CCS)CCC12CCOCC2 was tested, and the percent labeling was 36.4%.
CCC(=O)Nc1cccc(NC(=O)CCS)c1C was tested, and the percent labeling was 33.4%.
Molecule O=C(Cn1cccc(C(F)(F)F)c1=O)NCCS has a percent labeling of 34.6%.
With CC(=O)NCC1CCn2ncc(C(=O)NCCS)c2C1 (centres undefined) the percent labeling was 36.1%.
Molecule O=C(Cc1cnn(Cc2ccccc2)c1)NCCS has a percent labeling of 28.1%.
In the case of Cc1nn(C)c(C)c1C(CC(=O)NCCS)C(F)(F)F (centres undefined), the percent labeling is reported as 27%.
In the case of O=C(CC(n1ccnc1)C(F)(F)F)NCCS (centres undefined), the percent labeling is reported as 22.3%.
O=C(CCS)N1CC2C(C(F)(F)F)(C1)CS2(=O)=O (centres undefined) was tested, and the percent labeling was 40.5%.
O=C(NCCS)C(c1ccccc1)n1cccn1 (centres undefined) showed a percent labeling of 35.4%.
Work on O=C(NCCS)c1c[nH]c(=O)c(Br)c1 yielded a percent labeling of 45.4%.
With CCOc1ncc(C(=O)NCCS)cc1Cl the percent labeling was 25.9%.
For O=C(NCCS)C(Oc1ccc(Br)cc1Cl)c1ccccc1 (centres undefined), the percent labeling was 18.6%.
For Cc1cc2c(o1)CC(C)(C)CC2NC(=O)CCS (centres undefined), the percent labeling was 23.1%.
For CC(=O)NC(CC(=O)NCCS)c1ccc(F)cc1F (centres undefined), the percent labeling was 32.9%.
Molecule CCc1nn(C)c(OC)c1CNC(=O)CCS has a percent labeling of 29.9%.
O=C1CC(Cc2ccc(C(=O)NCCS)cc2)C(=O)N1 (centres undefined) showed a percent labeling of 43.1%.
Work on O=C(Cc1csc(-c2sccc2Br)n1)NCCS yielded a percent labeling of 22%.
For CN1C(=O)CCC(C(=O)NCCS)C1c1ccccc1 (centres undefined), the percent labeling was 34.8%.
O=C(CCS)NCc1ncc(-c2ccc(F)cc2)[nH]1 was tested, and the percent labeling was 36.7%.
In the case of COC(=O)c1cc2c(n1C)CCN(C(=O)CCS)C2, the percent labeling is reported as 40.7%.
For O=C(CCS)NCCc1noc2ccccc12, the percent labeling was 34.6%.
CC(=O)NC(Cc1ccc2c(c1)OCO2)C(=O)NCCS (centres undefined) showed a percent labeling of 41.7%.
In the case of O=C(NCCS)C1CCCN(C(=O)c2ccc3[nH]ncc3c2)C1 (centres undefined), the percent labeling is reported as 36.9%.
Cc1ccc(NC(=O)CCS)cc1NC(=O)CCN(C)C was tested, and the percent labeling was 67.3%.
With Cc1cc(C)nc(-n2[nH]c(C(=O)NCCS)cc2=O)n1 the percent labeling was 20.4%.
For COc1ccccc1Nc1ccc(C(=O)NCCS)cc1, the percent labeling was 28%.
